# The list shows a part of the results.
# B1: mCC1-Hexahis-Precomplexed (Mus musculus), P31809 (protein)
# chain: MELASAHLHKGQVPWGGLLLTASLLASWSPATTAEVTIEAVPPQVAEDNNVLLLVHNLPLALGAFAWYKGNTTAIDKEIARFVPNSNMNFTGQAYSGREIIYSNGSLLFQMITMKDMGVYTLDMTDENYRRTQATVRFHVHPILLKPNITSNNSNPVEGDDSVSLTCDSYTDPDNINYLWSRNGESLSEGDRLKLSEGNRTLTLLNVTRNDTGPYVCETRNPVSVNRSDPFSLNIIYGPDTPIISPSDIYLHPGSNLNLSCHAASNPPAQYFWLINEKPHASSQELFIPNITTNNSGTYTCFVNNSVTGLSRTTVKNITVLEPVTQPFLQVTNTTVKELDSVTLTCLSNDIGANIQWLFNSQSLQLTERMTLSQNNSILRIDPIKREDAGEYQCEISNPVSVRRSNSIKLDIIFDPTQGGLSDGHHHHHH
# How the values were obtained:
# Test in all cases: glycan array binding signal (z-score within array); higher = stronger binding
# Conditions in all cases: glycan notation: IUPAC condensed, linker removed
# [1] = target: Gal(b1-3)GalNAc(b1-3)Gal(a1-4)Gal(b1-4)Glc
# How it was run: (§1)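 Arrays were curated from the Consortium for Functional Glycomics database, 3228 in total, and kept only where the protein sequence was available. Binding is expressed as a within-array Z-score. This score was averaged across arrays of the same protein sequence at different concentrations or buffers and across linkers, and negative values can be read as non-binding.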
# [2] = target: Gal(b1-3)GalNAc(b1-4)Gal(b1-4)Glc
# How it was run: as §1
# [3] = target: Gal(b1-3)GalNAc(b1-4)[Neu5Ac(a2-3)]Gal(b1-4)Glc
# How it was run: as §1
# Gal(b1-3)GlcNAc = target: Gal(b1-3)GlcNAc
# How it was run: as §1
# [4] = target: Gal(b1-3)GlcNAc(a1-3)Gal(b1-4)GlcNAc
# How it was run: as §1
# [5] = target: Gal(b1-3)GlcNAc(a1-6)Gal(b1-4)GlcNAc
# How it was run: as §1
# Gal(b1-3)GlcNAc(b1-2)Man = target: Gal(b1-3)GlcNAc(b1-2)Man
# How it was run: as §1
# [6] = target: Gal(b1-3)GlcNAc(b1-2)Man(a1-3)[Gal(b1-3)GlcNAc(b1-2)Man(a1-6)]Man(b1-4)GlcNAc(b1-4)GlcNAc
# How it was run: as §1
# [7] = target: Gal(b1-3)GlcNAc(b1-2)Man(a1-3)[Gal(b1-3)GlcNAc(b1-2)Man(a1-6)]Man(b1-4)GlcNAc(b1-4)[Fuc(a1-6)]GlcNAc
# How it was run: as §1
# [8] = target: Gal(b1-3)GlcNAc(b1-2)Man(a1-3)[GlcNAc(b1-4)][Gal(b1-3)GlcNAc(b1-2)Man(a1-6)]Man(b1-4)GlcNAc(b1-4)GlcNAc
# How it was run: as §1
# [9] = target: Gal(b1-3)GlcNAc(b1-2)[Gal(b1-3)GlcNAc(b1-6)]Man(a1-6)[Gal(b1-3)GlcNAc(b1-2)Man(a1-3)]Man(b1-4)GlcNAc(b1-4)GlcNAc
# How it was run: as §1
# [10] = target: Gal(b1-3)GlcNAc(b1-3)Gal(b1-3)GlcNAc
# How it was run: as §1
# [11] = target: Gal(b1-3)GlcNAc(b1-3)Gal(b1-4)Glc
# How it was run: as §1
# [12] = target: Gal(b1-3)GlcNAc(b1-3)Gal(b1-4)GlcNAc
# How it was run: as §1
# [13] = target: Gal(b1-3)GlcNAc(b1-3)Gal(b1-4)GlcNAc(b1-2)Man(a1-3)[Gal(b1-3)GlcNAc(b1-3)Gal(b1-4)GlcNAc(b1-2)Man(a1-6)]Man(b1-4)GlcNAc(b1-4)GlcNAc
# How it was run: as §1
# [14] = target: Gal(b1-3)GlcNAc(b1-3)Gal(b1-4)GlcNAc(b1-2)[Gal(b1-3)GlcNAc(b1-3)Gal(b1-4)GlcNAc(b1-6)]Man(a1-6)[Gal(b1-3)GlcNAc(b1-3)Gal(b1-4)GlcNAc(b1-2)Man(a1-3)]Man(b1-4)GlcNAc(b1-4)[Fuc(a1-6)]GlcNAc
# How it was run: as §1
# [15] = target: Gal(b1-3)GlcNAc(b1-3)Gal(b1-4)GlcNAc(b1-3)Gal(b1-4)GlcNAc(b1-2)[Gal(b1-3)GlcNAc(b1-3)Gal(b1-4)GlcNAc(b1-3)Gal(b1-4)GlcNAc(b1-6)]Man(a1-6)[Gal(b1-3)GlcNAc(b1-3)Gal(b1-4)GlcNAc(b1-3)Gal(b1-4)GlcNAc(b1-2)Man(a1-3)]Man(b1-4)GlcNAc(b1-4)[Fuc(a1-6)]GlcNAc
# How it was run: as §1
# [16] = target: Gal(b1-3)GlcNAc(b1-3)Gal(b1-4)GlcNAc(b1-6)[Gal(b1-3)GlcNAc(b1-3)]Gal(b1-4)Glc
# How it was run: as §1
# [17] = target: Gal(b1-3)GlcNAc(b1-3)Gal(b1-4)[Fuc(a1-3)]GlcNAc
# How it was run: as §1
# [18] = target: Gal(b1-3)GlcNAc(b1-3)Gal(b1-4)[Fuc(a1-3)]GlcNAc(b1-6)[Gal(b1-3)GlcNAc(b1-3)]Gal(b1-4)Glc
# How it was run: as §1
# [19] = target: Gal(b1-3)GlcNAc(b1-3)GalNAc
# How it was run: as §1
# [20] = target: Gal(b1-3)GlcNAc(b1-6)Gal(b1-4)GlcNAc
# How it was run: as §1
# [21] = target: Gal(b1-3)GlcNAc(b1-6)GalNAc
# How it was run: as §1
# [22] = target: Gal(b1-3)GlcNAc(b1-6)[Gal(b1-3)]GalNAc
# How it was run: as §1
# Gal(b1-3)GlcNAc6S = target: Gal(b1-3)GlcNAc6S
# How it was run: as §1
# [23] = target: Gal(b1-3)[Fuc(a1-4)]GlcNAc
# How it was run: as §1
# [24] = target: Gal(b1-3)[Fuc(a1-4)]GlcNAc(b1-2)Man
# How it was run: as §1
# [25] = target: Gal(b1-3)[Fuc(a1-4)]GlcNAc(b1-2)Man(a1-3)[Gal(b1-3)[Fuc(a1-4)]GlcNAc(b1-2)Man(a1-6)]Man(b1-4)GlcNAc(b1-4)[Fuc(a1-6)]GlcNAc
# How it was run: as §1
# [26] = target: Gal(b1-3)[Fuc(a1-4)]GlcNAc(b1-3)Gal(b1-3)[Fuc(a1-4)]GlcNAc
# How it was run: as §1
# [27] = target: Gal(b1-3)[Fuc(a1-4)]GlcNAc(b1-3)Gal(b1-4)[Fuc(a1-3)]GlcNAc
# How it was run: as §1
# [28] = target: Gal(b1-3)[Fuc(a1-4)]GlcNAc(b1-6)GalNAc
# How it was run: as §1
# [29] = target: Gal(b1-3)[GlcNAc(b1-6)]GalNAc
# How it was run: as §1
# [30] = target: Gal(b1-3)[Neu5Ac(a2-6)]GalNAc
# How it was run: as §1
# [31] = target: Gal(b1-3)[Neu5Ac(a2-6)]GlcNAc(b1-4)Gal(b1-4)Glc
# How it was run: as §1
# [32] = target: Gal(b1-3)[Neu5Ac(b2-6)]GalNAc
# How it was run: as §1
# Gal(b1-4)Gal = target: Gal(b1-4)Gal
# How it was run: as §1
# [33] = target: Gal(b1-4)GalNAc(a1-3)[Fuc(a1-2)]Gal(b1-4)GlcNAc
# How it was run: as §1
# [34] = target: Gal(b1-4)GalNAc(b1-3)[Fuc(a1-2)]Gal(b1-4)GlcNAc
# How it was run: as §1
binder,measurement,setting,value
B1,glycan array binding signal (z-score),[1],-0.146
same,glycan array binding signal (z-score),[2],-0.182
same,glycan array binding signal (z-score),[3],-0.269
same,glycan array binding signal (z-score),Gal(b1-3)GlcNAc,-0.25
same,glycan array binding signal (z-score),[4],-0.095
same,glycan array binding signal (z-score),[5],-0.244
same,glycan array binding signal (z-score),Gal(b1-3)GlcNAc(b1-2)Man,-0.26
same,glycan array binding signal (z-score),[6],-0.103
same,glycan array binding signal (z-score),[7],-0.158
same,glycan array binding signal (z-score),[8],-0.162
same,glycan array binding signal (z-score),[9],-0.273
same,glycan array binding signal (z-score),[10],-0.192
same,glycan array binding signal (z-score),[11],-0.284
same,glycan array binding signal (z-score),[12],-0.201
same,glycan array binding signal (z-score),[13],-0.18
same,glycan array binding signal (z-score),[14],-0.016
same,glycan array binding signal (z-score),[15],0.016
same,glycan array binding signal (z-score),[16],-0.293
same,glycan array binding signal (z-score),[17],-0.207
same,glycan array binding signal (z-score),[18],-0.233
same,glycan array binding signal (z-score),[19],-0.096
same,glycan array binding signal (z-score),[20],-0.289
same,glycan array binding signal (z-score),[21],-0.128
same,glycan array binding signal (z-score),[22],-0.156
same,glycan array binding signal (z-score),Gal(b1-3)GlcNAc6S,-0.204
same,glycan array binding signal (z-score),[23],-0.191
same,glycan array binding signal (z-score),[24],0.037
same,glycan array binding signal (z-score),[25],0.03
same,glycan array binding signal (z-score),[26],0.114
same,glycan array binding signal (z-score),[27],-0.217
same,glycan array binding signal (z-score),[28],-0.085
same,glycan array binding signal (z-score),[29],-0.171
same,glycan array binding signal (z-score),[30],-0.108
same,glycan array binding signal (z-score),[31],-0.266
same,glycan array binding signal (z-score),[32],-0.13
same,glycan array binding signal (z-score),Gal(b1-4)Gal,-0.085
same,glycan array binding signal (z-score),[33],-0.247
same,glycan array binding signal (z-score),[34],-0.172

# Source: the supplement of paper PMC8728848
